This is an account of results in the supplement of paper PMC4604168 (melanoma cell lines).

Some of the results follow. Single values are uncertain, as repeats are few or missing.
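Also: cell number obtained by counting DAPI-stained nuclei in high-throughput microscope images with image analysis software, screen run in 1,536-well plates.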

In the test the test system is IST-MEL1. The test is described as follows: cell count relative to DMSO control; melanoma cells; higher = more viable cells. The conditions noted are these: library dose: low library concentration; 72 h.
`Cc1cc(Nc2cc(N3CCN(C)CC3)nc(Sc3ccc(NC(=O)C4CC4)cc3)n2)n[nH]1` [Tozasertib] + Cc1cc([N+](=O)[O-])ccc1NS(=O)(=O)c1cc(Cl)ccc1Cl [FH535] (first compound 0.006 µM, partner dose 1 µM) registered a cell count of 84.6%. Molecule `CC[C@]1(O)C[C@H]2CN(CCc3c([nH]c4ccccc34)[C@@](C(=O)OC)(c3cc4c(cc3OC)N(C=O)[C@H]3[C@@](O)(C(=O)OC)[C@H](OC(C)=O)[C@]5(CC)C=CCN6CC[C@]43[C@@H]65)C2)C1` [vincristine] + c1cc(-c2cnn3cc(-c4ccc(OCCN5CCCCC5)cc4)cnc23)ccn1 [Dorsomorphin] (first compound 0.0001 µM, partner dose 0.4 µM) displayed a cell count of 92.5%. The figure for `N#CC[C@H](C1CCCC1)n1cc(-c2ncnc3[nH]ccc23)cn1` [ruxolitinib] + Oc1nc(-c2ccc(C(F)(F)F)cc2)nc2c1CSCC2 [XAV939] (first compound 1 µM, partner dose 2 µM) is 109%. `Cc1cc(Nc2cc(N3CCN(C)CC3)nc(Sc3ccc(NC(=O)C4CC4)cc3)n2)n[nH]1` [Tozasertib] + Cn1cncc1[C@@](N)(c1ccc(Cl)cc1)c1ccc2c(c1)c(-c1cccc(Cl)c1)cc(=O)n2C [tipifarnib] (first compound 0.006 µM, partner dose 0.01 µM): the cell count worked out at 98.2%.

Regarding `CC[C@]1(O)C[C@H]2CN(CCc3c([nH]c4ccccc34)[C@@](C(=O)OC)(c3cc4c(cc3OC)N(C=O)[C@H]3[C@@](O)(C(=O)OC)[C@H](OC(C)=O)[C@]5(CC)C=CCN6CC[C@]43[C@@H]65)C2)C1` [vincristine] + NC(=O)Nc1cc(-c2cccc(F)c2)sc1C(=O)N[C@H]1CCCNC1 [AZD7762] (first compound 0.0001 µM, partner dose 0.02 µM), the cell count turned out to be 103%.

The molecule `Cc1cc(Nc2cc(N3CCN(C)CC3)nc(Sc3ccc(NC(=O)C4CC4)cc3)n2)n[nH]1` [Tozasertib] + O=C1NC(=O)/C(=C/c2ccc(-c3ccc(F)cc3O)o2)S1 [AS252424] (first compound 0.006 µM, partner dose 1 µM) came in with a cell count of 107%.

Molecule `CC[C@]1(O)C[C@H]2CN(CCc3c([nH]c4ccccc34)[C@@](C(=O)OC)(c3cc4c(cc3OC)N(C=O)[C@H]3[C@@](O)(C(=O)OC)[C@H](OC(C)=O)[C@]5(CC)C=CCN6CC[C@]43[C@@H]65)C2)C1` [vincristine] + Cc1cc(N2CCOCC2)cc2[nH]c(-c3c(NC[C@@H](O)c4cccc(Cl)c4)cc[nH]c3=O)nc12 [BMS536924] (first compound 0.0001 µM, partner dose 0.2 µM) yielded a cell count of 91.9%. On to `CC[C@]1(O)C[C@H]2CN(CCc3c([nH]c4ccccc34)[C@@](C(=O)OC)(c3cc4c(cc3OC)N(C=O)[C@H]3[C@@](O)(C(=O)OC)[C@H](OC(C)=O)[C@]5(CC)C=CCN6CC[C@]43[C@@H]65)C2)C1` [vincristine] + NCC(=O)Nc1ccc(-n2nc(C(F)(F)F)cc2-c2ccc3c(ccc4ccccc43)c2)cc1 [OSU03012] (first compound 0.0001 µM, partner dose 1 µM), for which the cell count was found to be 95.1%. The value for `Cc1cc(Nc2cc(N3CCN(C)CC3)nc(Sc3ccc(NC(=O)C4CC4)cc3)n2)n[nH]1` [Tozasertib] + Oc1nc(-c2ccc(C(F)(F)F)cc2)nc2c1CSCC2 [XAV939] (first compound 0.006 µM, partner dose 2 µM) was 99.5%; that for `CC[C@]1(O)C[C@H]2CN(CCc3c([nH]c4ccccc34)[C@@](C(=O)OC)(c3cc4c(cc3OC)N(C=O)[C@H]3[C@@](O)(C(=O)OC)[C@H](OC(C)=O)[C@]5(CC)C=CCN6CC[C@]43[C@@H]65)C2)C1` [vincristine] + COC(=O)c1sccc1S(=O)(=O)Nc1ccc(Nc2ccccc2)cc1OC [GSK0660] (first compound 0.0001 µM, partner dose 1 µM) was 101%; that for `Cc1cc(Nc2cc(N3CCN(C)CC3)nc(Sc3ccc(NC(=O)C4CC4)cc3)n2)n[nH]1` [Tozasertib] + N#Cc1c(O)c2c(-c3ccc(-c4ccccc4O)cc3)csc2[nH]c1=O [A769662] (first compound 0.006 µM, partner dose 2 µM) was 101%.
